# PubChem BioAssay AID2675 (National Center for Advancing Translational Sciences (NCATS), 2010)
# Among all 280,000 compounds or so, about 100 (0.036%) were called active. Inconclusive results, whose numbers are uncertain, are shown with a selection of clear calls. The call rests on the fitted dose curve; in most records, active means well fitted inhibition curve with a large enough effect in the signal ratio, with a control signal flat (not every such curve was filed as active); inconclusive means small, poorly fitted or top-dose-only effect, or effect the other way, or a change in a side signal; inactive means no such curve, though single readings can be large or run the other way; the % refers to the signal ratio. Potencies of inconclusive entries are doubtful fits and often do not repeat. “Side channel” marks fits to a control or component signal instead of the main read-out.
# Target: Muscleblind-like protein 1 (Homo sapiens) (UniProt Q9NR56)
# Sequence of UniProt Q9NR56 (Q9NR56 whole entry, looked up): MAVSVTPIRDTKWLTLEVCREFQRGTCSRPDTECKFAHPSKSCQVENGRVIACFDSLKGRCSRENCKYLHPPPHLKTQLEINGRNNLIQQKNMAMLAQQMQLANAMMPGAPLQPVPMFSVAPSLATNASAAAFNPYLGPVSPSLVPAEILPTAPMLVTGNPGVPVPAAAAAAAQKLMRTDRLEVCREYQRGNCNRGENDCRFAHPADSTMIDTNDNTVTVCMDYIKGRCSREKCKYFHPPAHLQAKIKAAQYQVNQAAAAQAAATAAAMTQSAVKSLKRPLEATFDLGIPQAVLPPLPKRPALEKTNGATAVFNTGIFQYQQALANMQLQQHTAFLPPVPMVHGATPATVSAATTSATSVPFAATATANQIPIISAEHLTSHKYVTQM
# Assay: qHTS Assay for Inhibitors of MBNL1-poly(CUG) RNA binding
# Conditions: TR-FRET MBNL1-His/biotin-(CUG)12 binding, 665/545 ratio; activity change, negative = inhibition: at 57.5 µM (top of the series)
# How it was run: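 Compounds (final 92 nM to 58 uM) are added to His-tagged MBNL1 and biotin-(CUG)12, then terbium anti-His antibody and streptavidin-XL665 (5 nM final). After 60 min at room temperature, the 665/545 nm ratio is read.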
# On the % scale 0 is the no-effect control and ±100 the full control effect; potency means the concentration at half of the fitted maximal effect; tags describe the fitted curve by direction and shape or compound fluorescence and quenching.
Structure (SMILES),Potency,"activity change, negative = inhibition"
CC(C)(C)C(=O)COC(=O)CCc1nc2ccccc2[nH]c1=O,"inconclusive: 14.1 µM [quencher, side channel, partial curve]",
CC(C)CC(=O)NC(=S)NNC(=O)c1cccc([N+](=O)[O-])c1,"inconclusive: 28.2 µM [quencher, side channel, partial curve]",
COc1ccccc1CNC(=O)C1COc2ccccc2O1 (centres undefined),"inconclusive: 7.08 µM [quencher, side channel, single point]",
CCc1nnc(N/N=C\c2ccc(OC(C)=O)c(OC)c2)n1N,"inconclusive: 31.6 µM [quencher, side channel, single point]",
N/C(=N\NC(=O)c1cccs1)c1cc2ccccc2oc1=O,"inconclusive: 12.6 µM [quencher, side channel, partial curve]",
CC1CCCC(NC(=O)c2ccc3c(=O)n(CC4CCCO4)c(=O)[nH]c3c2)C1C (centres undefined),,inactive: -9.94%
O=C1CSC(=Nc2ccccc2[N+](=O)[O-])N1,"inconclusive: 15.8 µM [quencher, side channel, partial curve]",
CCN1C(=O)[C@@H]2Cc3c([nH]c4ccccc34)C(c3cc(OC)c(OC)c(OC)c3)N2C1=S (some centres undefined),,inactive: 1.53%
O=C(c1ccccc1O)N1CCOCC1,,inactive: -3.48%
O=C(CNC(=O)OCc1ccccc1)Oc1cc2oc(=O)cc(-c3ccccc3)c2cc1Cl,"inconclusive: 31.6 µM [quencher, side channel, single point]",
O=c1oc2cc(O)ccc2cc1-c1ccccc1,"inconclusive: 12.6 µM [quencher, side channel, partial curve]",
O=C(N/N=C/c1cccs1)c1ccc2ccccc2c1,"inconclusive: 28.2 µM [quencher, side channel, partial curve]",
CCCCNC(=O)c1ccc(SCC(=O)N(CC)CC)c([N+](=O)[O-])c1,"inconclusive: 10 µM [quencher, side channel, partial curve]",
Cc1cccc(C)c1NC(=O)C(c1ccc([N+](=O)[O-])cc1)N(C)C(=O)c1ccccn1 (centres undefined),"inconclusive: 20 µM [quencher, side channel, single point]",
CS(=O)(=O)N1CCN(C(=S)NCc2ccc(F)cc2)CC1,"inconclusive: 0.562 µM [fluorescent, side channel, single point]",
COCCCNc1nc2ccccc2nc1NS(=O)(=O)c1ccc(OC)cc1,,inactive: 15.8%
CC(C)(C)NC(=O)c1ccc(C(=O)NC(C)(C)C)cc1,"inconclusive: 39.8 µM [quencher, single point]",
CC/C(=N/Nc1cccc(C)c1)c1cnnc(SC)n1,"inconclusive: 5.62 µM [quencher, side channel, single point]",
O=C(Nc1ccc(N2CCOCC2)cc1)c1ccc2nc(-c3ccco3)c(-c3ccco3)nc2c1,"inconclusive: 0.891 µM [quencher, side channel, partial curve]",
Cc1cc(C)n(-c2ccc([N+](=O)[O-])cc2-c2nn[nH]n2)n1,"inconclusive: 6.31 µM [quencher, side channel, full curve]",

Structure (SMILES),Potency,"activity change, negative = inhibition"
COc1ccc2cc(C(c3nnnn3Cc3ccc(F)cc3)N3CCCCCC3)c(=O)[nH]c2c1 (centres undefined),"inconclusive: 5.01 µM [quencher, side channel, full curve]",
Cc1c(C(=O)N2CC3(CC(c4cccc(NC(=O)[C@H]5CCC(=O)N5)c4)=NO3)C[C@@H]2C(N)=O)cc([N+](=O)[O-])cc1[N+](=O)[O-] (some centres undefined),"inconclusive: 14.1 µM [quencher, side channel, partial curve]",
COc1ccccc1NC(=S)N1CCCC1,,inactive: 2.97%
O=C(c1nn2c(C(F)(F)F)cc(-c3ccccc3)nc2c1Cl)N1CCOCC1,"inconclusive: 17.8 µM [quencher, side channel, partial curve]",
Cc1ccn2cc(-c3cccc([N+](=O)[O-])c3)nc2c1,"inconclusive: 10 µM [quencher, side channel, partial curve]",
Cc1ccc(Nc2nc(N)nc(CSC(=S)N3CCOCC3)n2)c(C)c1,"inconclusive: 10 µM [quencher, side channel, single point]",
CCOC(=O)c1ccc(Oc2nc(OC)cc(OC)n2)cc1,"inconclusive: 0.708 µM [quencher, side channel, single point]",
Cc1ccc(/C=C2/SC(=O)NC2=S)o1,"inconclusive: 15.8 µM [quencher, side channel, partial curve]",
O=C(CP(=O)(c1ccccc1)c1ccccc1)Nc1nc2ccc(Cl)cc2s1,,inactive: -12.1%
COc1ccc(NC2=C(C(C)=O)C(c3ccc(OC)c(OC)c3)C(C(C)=O)C(C)(O)C2)cc1 (centres undefined),"inconclusive: 0.447 µM [quencher, side channel, single point]",
CC(=O)N1c2ccc(S(=O)(=O)N3CCC(C(=O)Nc4cccc(C)c4C)CC3)cc2CC1C (centres undefined),,inactive: -1.28%
Nc1cc(N2CCCCC2)c([N+](=O)[O-])cc1Cl,"inconclusive: 39.8 µM [quencher, side channel, single point]",
O=C(c1cccs1)n1nc(-c2ccccc2)nc1NCc1ccco1,,inactive: 5.07%
CC(C)(C)C(=O)Nc1nnc(SCC(=O)Nc2nccs2)s1,,inactive: -5.35%
CCc1cccc(CC)c1NC(=O)c1ccccc1CCc1ccccc1,"inconclusive: 0.0891 µM [fluorescent, side channel, full curve]",
CCCc1cc(C(=O)Nc2ccc(C(C)=O)cc2)no1,,inconclusive: 5.09% [phenotype inactive]
COc1cc(/C=C2\SC(N)=NC2=O)cc(Br)c1O,"inconclusive: 11.2 µM [quencher, side channel, partial curve]",
CNc1sc(C(=O)c2ccccc2F)c(N)c1-c1nc2ccccc2s1,"inconclusive: 25.1 µM [quencher, side channel, single point]",
COc1cc(N=Nc2c(C)n(C)n(-c3ccccc3)c2=O)ccc1N,"inconclusive: 17.8 µM [quencher, side channel, partial curve]",
